Results taken from PubChem BioAssay AID651820 (National Center for Advancing Translational Sciences (NCATS), 2012).
In all, about 340,000 compounds went through this assay and about 12,000 (3.5%) were called active. Inconclusive means that the source gave no clear call. Such entries were picked first, then a sample of the others. Calls come from the whole dose curve; as a rule, active = well fitted inhibition curve with a large enough effect; inconclusive = small, poorly fitted or top-dose-only effect, or another doubt; inactive = no such curve, though single readings can be large or run the other way. No potency is given beside an inconclusive call; the fits are too rough.

Test: qHTS Assay for Inhibitors of Hepatitis C Virus (HCV)
Settings: Huh7.5.1 HCVcc-Cre (HCVcc is cell-culture hepatitis C virus) infection, luciferase reporter, 44 h; series mostly up to 41.8 µM
In short: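 Infectious HCVcc-Cre (~0.5 moi) was added to cells just after compound, with cells seeded 4 h earlier at 1,000 per well. Luciferase activity after 44 h culture reported infection; substrate was incubated 15 min at room temperature before reading.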
Potency is the fitted concentration of half-maximal effect; tags give direction and shape of the fitted curve.

**Q.** With `Cc1ccc(CN2C(=NC(=O)CCC(=O)O)SC3CS(=O)(=O)CC32)cc1` (stereo not given) as the compound, how does the Potency read?
**A.** Its Potency is “inactive”.

**Q.** Which Potency does the source give for `Cc1ccc(Cn2nnc3c(=O)n(Cc4cccc(C)c4)cnc32)cc1` here?
**A.** Its Potency is inconclusive [inhibitor, partial curve].

**Q.** Which Potency does the source give for `CCCCN(CC)Cc1ccc(CNC(=S)Nc2ccc(C)cc2Cl)o1` here?
**A.** The Potency was inconclusive [inhibitor, single point].

**Q.** With `CN1/C(=C\C(=O)C[n+]2ccc3ccccc3c2)C(C)(C)c2ccccc21` as the compound, how does the Potency read?
**A.** Its Potency is inconclusive [inhibitor, full curve, poor fit].

**Q.** With `Nc1cc2c(cc1[N+](=O)[O-])-c1ccccc1C2=NO` as the compound, how does the Potency read?
**A.** The Potency was inconclusive [inhibitor, partial curve].

**Q.** Which Potency does the source give for `COCCNCCCOc1ccc(Br)cc1Cl` here?
**A.** Its Potency is active: 10 µM.

**Q.** With `COc1ccc(Br)c(-c2nc(CS(=O)(=O)c3ccc(F)cc3)no2)c1` as the compound, how does the Potency read?
**A.** The Potency was inconclusive [inhibitor, partial curve].

**Q.** Which Potency does the source give for `Cc1ccc2cc(C(c3nnnn3C3CCCC3)N3CCN(c4ccc(F)cc4)CC3)c(=O)[nH]c2c1` (stereo not given) here?
**A.** The Potency was “inactive”.

**Q.** With `CC(C)Oc1ccccc1/C=N/NC(=O)c1ccc(F)cc1` as the compound, how does the Potency read?
**A.** The Potency was active: 7.94 µM.

**Q.** For `O=C1CC(N2CCOCC2)C(=O)N1c1ccc(Cl)cc1` (stereo not given), which Potency is on record?
**A.** Its Potency is “inactive”.

**Q.** For `CC(C)Cc1nc(SCC(=O)Nc2ccc(S(N)(=O)=O)cc2)n[nH]1`, which Potency is on record?
**A.** The Potency was inconclusive [inhibitor, single point].

**Q.** Which Potency does the source give for `O=Cc1c(Cl)nc2ccccn2c1=O` here?
**A.** The Potency was active: 10 µM.

**Q.** Which Potency does the source give for `O=C(c1ccc(CS(=O)c2cccc(Cl)c2)o1)N1CCCCCC1` (stereo not given) here?
**A.** Its Potency is inconclusive [inhibitor, partial curve].

**Q.** With `CCOc1ccc(Nc2nc(N3CCOCC3)nc(N3CCOCC3)n2)cc1` as the compound, how does the Potency read?
**A.** Its Potency is inconclusive [inhibitor, partial curve].

**Q.** For `CCC(=O)NC(Nc1sc2c(c1C(=O)OC)CCCC2)(C(F)(F)F)C(F)(F)F`, which Potency is on record?
**A.** The Potency was “inactive”.

**Q.** With `O=C(COc1ccc2ccccc2c1)NNC(=O)Cc1cccc2ccccc12` as the compound, how does the Potency read?
**A.** The Potency was inconclusive [inhibitor, single point].

**Q.** Which Potency does the source give for `Cc1nc2sc3c(c2c(=O)n1/N=C/c1cccnc1)CCCC3` here?
**A.** Its Potency is inconclusive [inhibitor, single point].

**Q.** With `O=C(Cc1ccccc1Cl)Nc1nc2ccccc2[nH]1` as the compound, how does the Potency read?
**A.** The Potency was “inactive”.

**Q.** Which Potency does the source give for `CC(C)(C)C(=O)NCCN1C(=O)S/C(=C\c2ccc([N+](=O)[O-])cc2)C1=O` here?
**A.** The Potency was inconclusive [inhibitor, partial curve].

**Q.** Which Potency does the source give for `COc1ccc(Cl)c(Cn2c(NCC(C)O)nc3c2c(=O)n(C)c(=O)n3C)c1` (stereo not given) here?
**A.** Its Potency is inconclusive [inhibitor, single point].
